The source of these data is PubChem BioAssay AID1240 (Sanford-Burnham Center for Chemical Genomics, 2008).

Among all 50,000 compounds or so, about 800 (1.6%) showed an effect of 50% or more. Some of the results follow.

For this assay, the target named is Bcl-2-like protein 10 (Homo sapiens) (UniProt Q9HD36). The assay can be described thus: TR3 peptide-Bcl-B binding displacers, biochemical primary FP assay, phenotype converters (AID 1240).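 Further: 0% = Bcl-B with tracer peptide and DMSO and 100% = tracer peptide lacking Bcl-B.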 The note with it: GST-Bcl-B / FITC-TR3 peptide fluorescence polarization; stronger effect = higher value; compound at 3.75 mg/L.
Chain of UniProt Q9HD36 (Q9HD36 whole entry, looked up): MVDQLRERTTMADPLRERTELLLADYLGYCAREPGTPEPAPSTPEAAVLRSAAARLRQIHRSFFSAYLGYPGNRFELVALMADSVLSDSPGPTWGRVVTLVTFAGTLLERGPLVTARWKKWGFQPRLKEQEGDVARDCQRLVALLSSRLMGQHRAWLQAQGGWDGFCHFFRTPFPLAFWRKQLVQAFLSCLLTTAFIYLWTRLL
As for `O=C(O)c1ccc(Cl)c(-c2ccc(/C=N\Nc3ccc([N+](=O)[O-])cn3)o2)c1`, the displacement was -25.7%.

With `CCOC(=O)Nc1ccc2c(c1)N(C(=O)NC)c1ccccc1CC2`, the displacement was -2.3%.

Consider `C=C(C)CSc1nc2sc3c(c2c(=O)n1CC(=C)C)CC(C)(C)OC3`, for which the displacement is -10.4%.

Regarding `CCC(=O)NNc1nc2c(c(=O)n1C1CCOC(C)(C)C1)C1(CCCCC1)Cc1ccccc1-2` (stereo not given), the displacement is -15.6%.

Regarding `CC(C)Oc1nnc(-c2ccccc2)c2ccccc12`, the displacement was -2.1%.

On to `Cc1sc(NC(=O)c2ccccc2)nc1-c1ccccc1`, for which the displacement turned out to be 2%.

For `CCCP(=O)(CCC)CCP(=O)(c1ccccc1)c1ccccc1`, the displacement stood at 0.6%.

As to `CC(C)CNc1ncnc2ccc(Br)cc12`, the displacement is 5.6%.

For `Cc1cccc(NC(=O)CC2S/C(=N\N=C3/CCCc4ccccc43)NC2=O)c1C` (stereo not given), the displacement came out at 11.9%.

With `CS(=O)(=O)N1CCN(c2ccc([N+](=O)[O-])c(NC3CC3)c2)CC1`, the displacement amounted to 8.3%.

On to `Cc1ccc(OCCCc2c(C)n[nH]c2C)c(C)c1`, for which the displacement was determined as 9%.

As for `CC1=NN(c2ccccc2)C(=O)C1C(c1ccccc1O)c1c(C)[nH]n(-c2ccccc2)c1=O` (stereo not given), the displacement was -8.8%.

In the case of `O=c1nc(-c2ccccc2Cl)c2cc(Br)ccc2[nH]1`, the displacement was 0.3%.

With `O=C(NCc1cccnc1)c1ccc(-c2cc(Cl)ccc2Cl)o1`, the displacement is -4.7%.

In the case of `CCOc1ccc(/C=C\C(C)=N\O)cc1`, the displacement stood at 5.9%.

With `COC(=O)NC(NC(=O)OC)c1ccc(OC)cc1`, the displacement is -4.5%.

For `O=C(NCCN1CCOCC1)c1cnn2c(C(F)(F)F)cc(-c3ccc(Br)cc3)nc12`, the displacement is -1.9%.

For the compound `CCOC(=O)CNS(=O)(=O)CCN1C(=O)c2ccccc2C1=O`, the displacement is -5.7%.

As to `CCOC(=O)N/N=C(\C)c1ccccn1`, the displacement worked out at 3.5%.

For `CCOC(=O)C(CCCOc1c(C)cc(Cl)cc1C)C(=O)OCC`, the displacement is -5.7%.

Turning to `CC1=NN(c2ccccc2)C(=O)/C1=C\C=C\c1cccc([N+](=O)[O-])c1`, the displacement came out at 8.3%.

In the case of `CCc1ccc(NC(=O)C2CC(=O)N(c3ccc(Br)cc3)C2)cc1` (stereo not given), the displacement is 12.9%.

As for `OC(COc1cccc(OCC(O)CN2CCCCC2)c1)CN1CCCCC1` (stereo not given), the displacement is -9.2%.

In the case of `O=C(NCc1ccc2c(c1)OCO2)C(=O)Nc1ccccc1F`, the displacement was -3.1%.

In the case of `COc1cc(/C=C2/C(=O)NN(c3ccc(C)c(C)c3)C2=O)ccc1O`, the displacement is -1.1%.

Consider `COc1cc(CN2CCN(S(=O)(=O)c3ccc(C)cc3)CC2)cc(OC)c1O`, for which the displacement is 6.8%.

Consider `O=C(NC(c1ccccc1)c1ccc2cccnc2c1O)c1ccccc1` (stereo not given), for which the displacement stood at 0.9%.

On to `Cc1ccc(Sc2ccc(/C=N/n3cnnc3)o2)cc1`, for which the displacement is -8.1%.

For `Cc1no[n+]([O-])c1COc1ccc(C=C2C(=O)NC(=O)NC2=O)cc1`, the displacement is 2.5%.

Turning to `COc1ccc(CC(=O)Nc2cc(C(=O)O)cc(C(=O)O)c2)cc1OC`, the displacement turned out to be 11.6%.

With `Cc1cc(NC(=O)COc2ccccc2Cl)ccc1NC(=O)c1ccccc1`, the displacement was -6.5%.

Regarding `Clc1cccc(N=Cc2ccc(OC3CSC3)cc2)c1`, the displacement was 3.9%.

With `Cc1cc(C(=O)Nc2ccc(S(=O)(=O)Nc3nccs3)cc2)ccc1[N+](=O)[O-]`, the displacement was 5.6%.

Take `CN(C)CCN1C(=O)C(=O)/C(=C(/O)c2ccccc2)C1c1ccc(Cl)cc1` (stereo not given): the displacement was -15.6%.

For `CC(C)NC(=O)C(=O)NCc1ccccn1`, the displacement was -0.4%.

`CC(=O)NNc1nc2ccccc2s1`: the displacement is -21.4%.

`CCOc1ccc(N(CC(=O)N2CCCCC2)S(C)(=O)=O)cc1`: the displacement came to 2.2%.

For `Cc1nc2ccc(NC(=S)NCCCO)cc2nc1C`, the displacement stood at 9.5%.

Take `Cn1c(=O)c(N2CCCCC2)c2c3c(cccc31)C(=O)c1ccccc1-2`: the displacement was determined as 147%.

As to `C=C(C)Cn1c(SCC(N)=O)nc2sc3c(c2c1=O)CCC3`, the displacement was -3.2%.

For the compound `O=C(c1ccc(Cl)c([N+](=O)[O-])c1)N1CCC(Cc2ccccc2)CC1`, the displacement is 8.7%.

Regarding `CC(=O)Oc1cccc(N2C(=O)c3ccc(-c4nc5ccccc5c(=O)o4)cc3C2=O)c1`, the displacement was -7.9%.

Take `CCn1ccnc1C(O)c1ccc(OC)c(OC)c1` (stereo not given): the displacement is -7.8%.

`COc1cccc(OCCOc2cccc(/C=C3/SC(=S)N(Cc4ccccc4)C3=O)c2)c1`: the displacement is -3.3%.

As for `Cc1sc2nc(-c3ccc(Br)cc3)[nH]c(=O)c2c1C`, the displacement is -3.4%.

With `COc1ccc(O)c(CN2CCN(Cc3ccccc3OC)CC2)c1`, the displacement was found to be 11.2%.

Take `COc1ccc(Cl)cc1NC(=O)c1cc(Cl)ccc1OC`: the displacement was 4.7%.

On to `CCOc1ccccc1C1CC(=O)NC(SC)=C1C#N` (stereo not given), for which the displacement is -5.9%.

As to `COC(=O)c1ccccc1NC(=O)CSc1nc2ccc(N3C(=O)c4ccccc4C3=O)cc2s1`, the displacement came to 3.2%.

As to `Cc1cccc(OCC(=O)O/N=C(\N)c2ccc([N+](=O)[O-])cc2)c1`, the displacement worked out at 13.5%.

For `Cc1nc2ccc(NC(=S)Nc3cccc([N+](=O)[O-])c3)cc2nc1C`, the displacement came to 11.4%.

In the case of `Cc1cc(C)cc(-n2c(C)cc(C=C3SC(=S)NC3=O)c2C)c1`, the displacement was -9%.

`O=C(Nc1ccc(Cl)cc1)c1ccc2c(c1)OCCO2`: the displacement worked out at 7.4%.

In the case of `O=[N+]([O-])c1ccc(S(=O)(=O)N(CCO)C2CCCCC2)cc1`, the displacement was -7.1%.

As to `COc1ccc(/C=N/S(=O)(=O)c2ccc(C)cc2)c(OC)c1`, the displacement is -1.1%.

For `Cc1cc2ncn(C(=O)c3c(-c4c(Cl)cccc4Cl)noc3C)c2cc1C`, the displacement amounted to 13.8%.

Regarding `O=C1NC(=S)N(c2ccccc2)C(=O)/C1=C/c1ccc(-c2ccc(Cl)c(C(=O)O)c2)o1`, the displacement came out at 2.4%.

In the case of `Cc1cc(C)c(S(=O)(=O)Nc2ccc3oc4c(c3c2)C(=O)CC(C)(C)C4)c(C)c1`, the displacement is 2%.

With `O=[N+]([O-])c1ccc(CNC2C3CC4CC(C3)CC2C4)cc1` (stereo not given), the displacement was 2.1%.

With `O=C1NC(=O)/C(=C\c2ccccc2Cl)S1`, the displacement is -4.1%.

For `CCOc1ccc(NC2CC(=O)N(c3ccccc3F)C2=O)cc1` (stereo not given), the displacement is -4.9%.

As for `Cc1cc(Cl)ccc1OCC(=O)Nc1ccc(S(N)(=O)=O)cc1`, the displacement is 1.2%.

Consider `CCOC(=O)C1C(=O)CC(O)(c2cccc(Br)c2)CC1C=C(Cl)Cl` (stereo not given), for which the displacement was 18.4%.

For `O=C(N/C(=C/c1cccnc1)c1nc2ccccc2[nH]1)c1cccc(Br)c1`, the displacement is -2.3%.

`CC1=NN(C(=O)Cc2ccccc2)C(O)(c2ccc(Cl)cc2)C1` (stereo not given): the displacement is -6.1%.

As to `CC1=C(C(=O)Nc2ccccc2)C(c2ccc(C)o2)NC(=S)N1` (stereo not given), the displacement was -2.7%.

In the case of `O=[N+]([O-])c1ccc2nc(N3CCN(Cc4ccc5c(c4)OCO5)CC3)sc2c1`, the displacement was -19.7%.

Consider `O=C(Nc1cccc(C(F)(F)F)c1)c1cccc(N2C(=O)c3ccccc3C2=O)c1`, for which the displacement was -5.6%.

As for `CC(=O)CC(c1ccccc1)S(=O)(=O)c1cccc(C)c1` (stereo not given), the displacement was 5.2%.

Take `O=C1C2C(C(=O)N1c1ccc(Br)cc1)C2(c1ccccc1)c1ccccc1` (stereo not given): the displacement worked out at 6.8%.

Take `CCC(C(=O)O)P(=O)(c1ccccc1)c1ccccc1` (stereo not given): the displacement was found to be 11.9%.

`CCN(CC)CCCOc1cccc(OC)c1`: the displacement was determined as 8.5%.

On to `COc1ccc(-n2c(SCC(=O)c3ccccc3)nc(O)c(Cc3ccccc3)c2=O)cc1`, for which the displacement is 4.9%.

As to `CCOC(=O)Nc1ccc2c(c1)N(C(=O)OCC)c1ccccc1CC2`, the displacement is -8.1%.

For `O=C(Nc1ccncc1)c1cc(-c2ccccc2)nc2ccccc12`, the displacement came to 21.1%.

As to `CCOC(=O)c1c(C)[nH]c2ccc(OC(C)=O)cc12`, the displacement came out at 5.3%.

Consider `O=C(Nc1ccc2oc(-c3cccc(Cl)c3Cl)nc2c1)c1ccccc1Cl`, for which the displacement is -0.3%.

On to `CCC(=O)Nc1ccc(-c2nc3ccccc3s2)cc1`, for which the displacement amounted to 17.5%.

For `COc1ccc(C(=O)Nc2ccccc2)cc1NC(=O)c1c(OC)cccc1OC`, the displacement came out at 11.8%.

Turning to `COc1ccc(CCNC(=O)C2CC2(c2ccccc2)c2ccccc2)cc1OC` (stereo not given), the displacement is -7%.

`CCOC(=O)c1c(NC(=O)c2ccc(C)c(C)c2)sc(C(C)=O)c1C`: the displacement was -4.7%.

With `CC(C)c1ccc(N2C(=O)/C(=C/c3cc(Cl)c(O)c(Cl)c3)C(=O)NC2=S)cc1`, the displacement is -6.6%.

`CC(=O)c1ccc(NC(=O)C2CC(=O)N(c3cc(C)ccc3C)C2)cc1` (stereo not given): the displacement amounted to 11.9%.

Regarding `COC(=O)c1sc(NC(=O)CC(C)C)c(C(=O)OC)c1C`, the displacement was -6.2%.

As to `O=C(O)c1cc(-c2cccnc2)nc2ccc(Br)cc12`, the displacement was determined as 9.8%.

As to `CCn1c2ccccc2c2cc(CN3CCN(Cc4cccc([N+](=O)[O-])c4)CC3)ccc21`, the displacement was -11.3%.

With `CCOc1cc(/C=C2/SC(=S)N(C)C2=O)ccc1OC(=O)c1ccc(C)cc1`, the displacement came out at 62.3%.

Turning to `Cc1cc(NC(=O)c2cccc(Br)c2)ccc1-c1cc2ccccc2oc1=O`, the displacement is 6.5%.

Turning to `NS(=O)(=O)c1ccc(CCNC(=O)NC2CCCCC2)cc1`, the displacement is 3.6%.

Turning to `Cc1ccc(S(=O)(=O)N2CCCC2C(=O)N2CCCCC2)cc1` (stereo not given), the displacement is -3.9%.

For the compound `Cc1cc(C)cc(CSCC(=O)O)c1`, the displacement came out at 10.2%.

Consider `O=C(O)c1ccc(/C=N/N2CCN(Cc3cccc4ccccc34)CC2)cc1`, for which the displacement is -5.8%.

Regarding `Cc1ccc(C)c(N2C(=O)C3C(C2=O)N2CCCN2C3c2ccccc2)c1` (stereo not given), the displacement amounted to 1.4%.

For `O=C1/C(=C\c2cccc(C(F)(F)F)c2)SC(=S)N1Cc1ccccc1`, the displacement was determined as 11%.

With `Cc1ccc(OC(=O)COc2ccc(Cl)cc2Cl)cc1`, the displacement is -1.2%.

With `O=C(O)c1ccc(N=Cc2ccc([N+](=O)[O-])s2)cc1`, the displacement was determined as 1.1%.

Turning to `O=[N+]([O-])c1ccc2c(c1)c(-c1ccccc1)c(CO)n2Cc1ccccc1`, the displacement amounted to 33.3%.

On to `O=C(Nc1ccc(-c2nc3ccccc3[nH]2)cc1)c1ccccc1`, for which the displacement was determined as 0.3%.

`Cc1ccc(C(=O)O)cc1NC(=O)C1CCCCC1C(=O)O` (stereo not given): the displacement was -9.6%.

As to `CCOc1ccc(CN2CCN(C(=O)c3ccccc3OC)CC2)cc1`, the displacement was -21.7%.

Regarding `C(=N\N1CCN(c2ccccn2)CC1)/c1ccco1`, the displacement was -0.3%.

As for `COc1ccccc1/C=N/N1C(=O)c2cccc3cccc(c23)C1=O`, the displacement came to 6.2%.

`CCOC(=O)C1=C(C)N=C2SCC(=O)N2C1c1ccc(Cl)cc1` (stereo not given): the displacement is 7.4%.

In the case of `CSC1=C(C#N)C(c2ccc(Br)cc2)CC(=O)N1` (stereo not given), the displacement was -2.7%.

Consider `COc1ccc(CC(=O)Nc2ccc(Cl)cc2C)cc1OC`, for which the displacement is -4.4%.

With `COc1ccc(N2C(=O)c3ccccc3NC2c2ccc(OC)c(COc3ccc(NC(C)=O)cc3)c2)cc1` (stereo not given), the displacement came out at 10.9%.

As for `COC(=O)C1=C(O)/C(=C/c2cc(C)n(-c3ccc(Cl)cc3Cl)c2C)N=C1C`, the displacement is 13.1%.

As to `CCc1ccc(NC(=O)COc2ccc(C)c(C)c2)cc1`, the displacement is -2.9%.

Turning to `Cc1ccccc1OCC(O)CNS(=O)(=O)c1ccccc1C(=O)O` (stereo not given), the displacement was -13%.

Consider `CSC1=C(C#N)C(c2ccc(Cl)cc2)C2=C(CC(C)(C)CC2=O)N1` (stereo not given), for which the displacement was -9.2%.
